Data: the RNAGym collection of RNA variant scans (doi:10.1073/pnas.2313332121)
Variants at the background level are over-represented here.

B1: TPR 5TU (parent)
chain: GGAUCUUCUCGAUCUAACAAAAAAGACAAAUCUGCCACAAAGCUUGAGAGCAUCUUCGGAUGCAGAGGCGGCAGCCUUCGGUGGCGCGAUAGCGCCAACGUUCUCAACUAUGACACGCAAAACGCGUGCUCCGUUGAAUGGAGUUUAUCAUG

Variants of: B1
Experiment: polymerase ribozyme fitness, log enrichment relative to wild type (log ratio); higher = more active; in vitro selection for triplet polymerase activity
Outline: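 Libraries of mutants in each subunit of a heterodimeric triplet polymerase ribozyme were generated by PCR and transcribed. In triplicate, each went through one in vitro selection round: annealing with biotinylated primer, partner subunit and triplets; frozen incubation at −7 °C; gel excision of extended constructs; streptavidin-bead capture; RT-PCR. Fitness, taken from Illumina sequencing of input and output libraries, is the logarithm of a genotype's enrichment over wild-type enrichment, averaged across replicates with inverse-variance weights. The logarithm is base 2, and genotypes needed ≥10 input reads and ≥1 read per output to be kept.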

U44G A49C G62C U148A and U44G G50C C125A U127G A142U cannot be ordered by “polymerase ribozyme fitness (log ratio)” value: no more than -4.2 for the first, no more than -4.2 for the second.

U44G U61A C69U U102G C116G A121C and U45A G68C U78A C93A A107U cannot be ordered by “polymerase ribozyme fitness (log ratio)” value: no more than -4.2 for the first, no more than -4.2 for the second.

U45A G83A A122U G136C and U45G U56G A66C A73G A107C G140U cannot be ordered by “polymerase ribozyme fitness (log ratio)” value: no more than -4.2 for the first, no more than -4.2 for the second.

U45G G50A C54U A120C G126C and U45C G48C C54U C57A G88C C95A C105G A107U G124C cannot be ordered by “polymerase ribozyme fitness (log ratio)” value: no more than -4.2 for the first, no more than -4.2 for the second.

U45G U82A C95A C123G A150G and U45C G48C A64C A122U U135G cannot be ordered by “polymerase ribozyme fitness (log ratio)” value: no more than -4.2 for the first, no more than -4.2 for the second.

First: U44G G141A
Second: U45A U56G A66C G67C G71U C85G G88U A89G C99U A110G C132G
The “polymerase ribozyme fitness (log ratio)” value of the first is higher: -4.12 for the first, no more than -4.2 for the second.

U45A U56G G59U A66C C96A C116U and U45G A115C A142C cannot be ordered by “polymerase ribozyme fitness (log ratio)” value: no more than -4.2 for the first, no more than -4.2 for the second.

U45A G74U A107G and U45G U77A C93U U102G U146G cannot be ordered by “polymerase ribozyme fitness (log ratio)” value: no more than -4.2 for the first, no more than -4.2 for the second.

U44G A73U C85A C99U A142C and U45A G65A G83C C87G U144A U145G cannot be ordered by “polymerase ribozyme fitness (log ratio)” value: no more than -4.2 for the first, no more than -4.2 for the second.

U45A A107U A120G and U45A G50C C57U G88A A120U U127G cannot be ordered by “polymerase ribozyme fitness (log ratio)” value: no more than -4.2 for the first, no more than -4.2 for the second.

Compared with G46A A47C G50C C79G U109G G141C, U45A C57A C95U is higher in “polymerase ribozyme fitness (log ratio)” value: no more than -4.2 for the first, -2.12 for the second.

U45A U109G C132G and U44G G65A G84A cannot be ordered by “polymerase ribozyme fitness (log ratio)” value: no more than -4.2 for the first, no more than -4.2 for the second.

U44G U148C and U45C G62C A91U U104A cannot be ordered by “polymerase ribozyme fitness (log ratio)” value: no more than -4.2 for the first, no more than -4.2 for the second.

U45A G70A C85U U144C and U44G C79A C87G cannot be ordered by “polymerase ribozyme fitness (log ratio)” value: no more than -4.2 for the first, no more than -4.2 for the second.

U45C G59U U101G U102C and U44G U53A C87G A110G G141U cannot be ordered by “polymerase ribozyme fitness (log ratio)” value: no more than -4.2 for the first, no more than -4.2 for the second.

U45A G48U G50A G59C G68U C96U C131A A137C G152A and U44G C85A A120U U145C cannot be ordered by “polymerase ribozyme fitness (log ratio)” value: no more than -4.2 for the first, no more than -4.2 for the second.

U45A G50A C96U U101G C108G A122G A138C and G46A A49C A91G cannot be ordered by “polymerase ribozyme fitness (log ratio)” value: no more than -4.2 for the first, no more than -4.2 for the second.

U45A C85A C118U C129A A137C and U45A G46C G86U U90G G124C cannot be ordered by “polymerase ribozyme fitness (log ratio)” value: no more than -4.2 for the first, no more than -4.2 for the second.

U45A G46C C85G G88C C93U A115C A150G and U44G U101G U146C A150U cannot be ordered by “polymerase ribozyme fitness (log ratio)” value: no more than -4.2 for the first, no more than -4.2 for the second.

U45A G140A and U45G C108U cannot be ordered by “polymerase ribozyme fitness (log ratio)” value: no more than -4.2 for the first, no more than -4.2 for the second.

U44G A66C G81A C85U U148G and U45A G50A A91U G92C A107C C118U cannot be ordered by “polymerase ribozyme fitness (log ratio)” value: no more than -4.2 for the first, no more than -4.2 for the second.
